# Laboratory results taken from paper PMC4336329 (PLoS ONE, 2015).
# Among all 310,000 compounds or so, about 2,200 (0.71%) showed an effect of 50% or more. The effect is printed as a negative number. Some of the results follow.
# Biological target: human ether-à-go-go-related gene (hERG) potassium channel (human, UniProt Q12809)
# Experiment: primary screen, population patch clamp on CHO cells stably expressing hERG
# Sequence of human ether-à-go-go-related gene (hERG) potassium channel (Q12809 whole entry, looked up): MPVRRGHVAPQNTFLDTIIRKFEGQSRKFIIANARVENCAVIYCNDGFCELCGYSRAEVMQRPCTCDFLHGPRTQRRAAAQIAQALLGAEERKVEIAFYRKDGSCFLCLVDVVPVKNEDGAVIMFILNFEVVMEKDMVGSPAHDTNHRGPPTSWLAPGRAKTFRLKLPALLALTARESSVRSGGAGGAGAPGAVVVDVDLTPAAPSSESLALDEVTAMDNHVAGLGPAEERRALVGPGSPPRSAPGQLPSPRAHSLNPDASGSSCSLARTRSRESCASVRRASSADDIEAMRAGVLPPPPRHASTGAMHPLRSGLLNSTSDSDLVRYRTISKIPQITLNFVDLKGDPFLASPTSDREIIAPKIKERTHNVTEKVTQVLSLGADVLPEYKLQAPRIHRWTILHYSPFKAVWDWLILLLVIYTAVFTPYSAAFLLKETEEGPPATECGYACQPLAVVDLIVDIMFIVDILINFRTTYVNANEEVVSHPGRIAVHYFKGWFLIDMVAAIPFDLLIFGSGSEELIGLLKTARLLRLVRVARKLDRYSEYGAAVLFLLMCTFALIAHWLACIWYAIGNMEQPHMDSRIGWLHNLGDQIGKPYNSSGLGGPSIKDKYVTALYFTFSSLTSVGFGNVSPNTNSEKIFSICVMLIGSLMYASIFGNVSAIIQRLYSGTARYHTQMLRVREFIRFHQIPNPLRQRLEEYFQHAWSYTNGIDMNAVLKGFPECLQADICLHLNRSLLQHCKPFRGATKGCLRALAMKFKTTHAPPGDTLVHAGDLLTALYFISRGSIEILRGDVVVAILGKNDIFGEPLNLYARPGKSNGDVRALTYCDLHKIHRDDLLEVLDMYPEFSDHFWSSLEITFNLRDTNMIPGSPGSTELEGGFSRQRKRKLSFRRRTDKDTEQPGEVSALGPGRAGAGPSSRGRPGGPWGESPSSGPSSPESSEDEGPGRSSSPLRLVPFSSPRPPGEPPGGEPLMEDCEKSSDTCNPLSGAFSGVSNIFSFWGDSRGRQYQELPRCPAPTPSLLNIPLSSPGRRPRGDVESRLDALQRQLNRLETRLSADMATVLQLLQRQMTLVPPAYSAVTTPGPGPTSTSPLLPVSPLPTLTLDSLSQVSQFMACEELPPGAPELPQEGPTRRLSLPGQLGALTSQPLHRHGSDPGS
row,SMILES,"hERG current change (%, negative = inhibition) at 1uM"
1,COC1=C(Nc2ccccc2)C(=O)c2ccccc2C1=O,3.25%
2,CCOc1ccc(NC(=O)CSc2nc(O)c(C)c(=O)n2-c2ccc(F)cc2)cc1,7.42%
3,CC(C)Cn1[nH]c2c3c(ccc2c1=O)C(=O)c1ccccc1C3=O,6.03%
4,COc1ccc(CCNC(=O)COC(=O)Cc2cc(OC)c(OC)c(OC)c2)cc1,6.26%
5,COc1cccc2cc(C(=O)C3=C(O)C(=O)N(CCN4CCOCC4)C3c3ccc(C)o3)oc12 (centres unmarked),9.09%
6,CCOC(=O)c1ccc(-n2cccc2/C=C2\NC(=O)NC2=O)cc1,14.6%
7,CN1CCN(c2ccccc2/C=C2/C(=O)Nc3ccccc32)CC1,11.5%
8,O=C(c1[nH]ncc1-c1ccccc1)C1CO1 (centres unmarked),14.4%
9,Cc1ccc(S(=O)(=O)Nc2ccc(NC(=O)c3cccnc3)cc2)cc1,2.65%
10,O=C(CCc1ccccc1)N/N=C/c1cc(Br)ccc1O,15.6%
11,NC1=NC[C@H](Cc2ccc(O)cc2)N1CCc1cccc2ccccc12,10.7%
12,CCOC(CNC(=O)c1ccc2nc(N3CCC(C)CC3)sc2c1)OCC,14.5%
13,CCCn1nc(NC(=O)c2cccs2)c2cc3cc(OC)ccc3nc21,4.24%
14,O=C(O)CCC(=O)N1CCc2cc(S(=O)(=O)N(CCc3ccccc3)Cc3ccccc3)ccc21,49.1%
15,Br.COc1ccc(OC)c(N2Cc3ccccc3C2=N)c1,-14.8%
16,Cc1ccc(NC(=O)C(=O)C2C(=O)Nc3ccccc32)cc1 (centres unmarked),9.88%
17,Cc1cc(C)c(NC(=O)CN(C)C(=O)C2CC(=O)N(c3cccc4ccccc34)C2)c(C)c1 (centres unmarked),0.415%
18,CN1CCN(c2nc3c(c(=O)[nH]c(=O)n3C)n2CCCSc2nnnn2-c2ccccc2)CC1,-11.9%
19,COc1ccc(CN2CCCCC2c2cccnc2)c(OC)c1C (centres unmarked),15.7%
20,O=C(OCc1nc2scc(-c3ccccc3)c2c(=O)[nH]1)c1cc([N+](=O)[O-])ccc1Cl,6.51%
21,O=C(c1ccc(COc2ccccc2Br)o1)N1N=C(C(F)F)CC1(O)C(F)F (centres unmarked),13.3%
22,O=C(OCC(=O)N1CCCc2ccccc21)c1cccc(S(=O)(=O)N2CCc3ccccc32)c1,-3.58%

row,SMILES,"hERG current change (%, negative = inhibition) at 1uM"
1,C[C@H](NC(=O)c1ccccc1Cl)C(=O)OCC(=O)NNC(=O)c1cccs1,9.26%
2,Cc1ccc(NC(=O)CCn2cccc2)cc1C,20.7%
3,Cc1ccccc1OCC(=O)N(Cc1nc(-c2ccccc2)no1)C(C)C,-2.83%
4,NS(=O)(=O)c1ccc(NC(=S)Nc2cc(Cl)c(Cl)cc2Cl)cc1,14.7%
5,COc1ccc(CCn2c(=N)c(C(=O)NCc3ccco3)cc3c(=O)n4cccc(C)c4nc32)cc1,-76.6%
6,COc1ccc(C(C)=O)cc1CC(C(=O)c1ccc(C)c(C)c1)N(C)C (centres unmarked),5.03%
7,Nc1nc(SCC(=O)Nc2ccc(OC(F)(F)F)cc2)[nH]c(=O)c1NC(=O)c1ccc(Br)o1,17.1%
8,N#CC1=C(C2CC2)CC(c2ccccc2)C(C#N)=C1N (centres unmarked),4.98%
9,COc1ccc(NC(=O)C2CCC(N3C(=O)C4C5C=CC(C5)C4C3=O)CC2)cc1 (centres unmarked),-2.03%
10,Cc1[nH]nc2ncc(C(=O)c3ccccc3O)cc12,9.74%
11,CCCC(=O)Nc1ccc(C(=O)n2ccc(C)n2)cc1,5.13%
12,O=C(COc1ccc([N+](=O)[O-])cc1)Nc1ccc2c(c1)OCO2,1.09%
13,O=C(NCc1ccccc1)c1cccc(NC(=O)c2ccco2)c1,9.71%
14,CN1CC(=O)N(CCOc2ccccc2)C1=O,19.9%
15,CC1(C)Cc2c(C#N)c(NC3CCCCC3)nc(-c3ccco3)c2CO1,14.6%
16,Cc1ccc(C(=O)NCCOc2cccc3cccnc23)cc1Cl,1.83%
17,CC(C)COC(=O)N1CCCC1C(=O)Nc1nccs1 (centres unmarked),13.3%
18,COc1ccc(C(=O)Nc2ccc(N3CCCCC3)cc2)cc1Br,-2.66%
19,COc1cccc(NC(=O)C(C)NS(=O)(=O)c2ccc(Br)cc2)c1 (centres unmarked),-4.64%
20,COCc1ccc(CN2CCC(C(=O)Nc3cccc(-c4cscn4)c3)CC2)o1,8.14%
21,O=C1Nc2ccccc2C1=Nc1cccc(Cl)c1,22.3%
22,Cc1noc(C)c1S(=O)(=O)N1CCCC(C(=O)Nc2ccc(Cl)cn2)C1 (centres unmarked),1.92%

row,SMILES,"hERG current change (%, negative = inhibition) at 1uM"
1,O=C(CN1CCCCC1)Nc1ccc(C(F)(F)F)cc1Cl,11.8%
2,CC12CN3CC(C)(CN(C1)C3c1cccs1)C2 (centres unmarked),8.57%
3,CC(Oc1cc(F)ccc1[N+](=O)[O-])C(=O)Nc1ccc(S(=O)(=O)N2CCCC2)cc1 (centres unmarked),13.3%
4,O=C(C1=C[C@@H](c2ccccc2)C[C@@H](OCc2ccc(CO)cc2)O1)N1CCCCCCC1,-2.3%
5,Cc1c(Cl)c([N+](=O)[O-])nn1CCCC(=O)NCCc1ccccc1,5.41%
6,C=C[C@@]1(C)CC(=O)[C@]2(O)[C@@]3(C)[C@@H](O)CCC(C)(C)[C@@H]3[C@H](OC(C)=O)[C@H](O)[C@@]2(C)O1,12.6%
7,CCCn1c(N)c(Br)c(=O)[nH]c1=O,14.9%
8,S=C(c1c[nH]c2ccc(Br)cc12)N1CCOCC1,11.5%
9,O=C(NC(=S)Nn1cnc2c(cnn2-c2ccccc2)c1=O)c1ccc(Oc2ccccc2)cc1,13.5%
10,CC1CCCN(CC(O)COCc2ccccc2)C1.Cl (centres unmarked),10.6%
11,CN(Cc1ccccc1)C(=O)c1ccc(NC(=O)Cc2cccc(NC(=O)C3CCN(C(=O)C4CCCC4)CC3)c2)cc1,5.06%
12,C=CC(COCc1ccccc1)N(Cc1ccc(OC)cc1)S(=O)(=O)c1ccccc1Br (centres unmarked),1.46%
13,O=C(CNC(=O)C1CCCCC1)OCC(=O)c1ccc(F)cc1,3.13%
14,COc1cc(CNC(C)(C)CO)cc(Br)c1OCc1ccc(Cl)cc1Cl,-1.48%
15,O=C(CCc1nnc(CCC2CCCCC2)o1)NCc1ccon1,3.23%
16,O=C(Nc1ccccc1-c1nc2ccccc2[nH]1)c1ccc(N2C(=O)CCC2=O)cc1,9%
17,O=C(NCCc1ccccc1)/C(=C\c1ccc([N+](=O)[O-])cc1)NC(=O)c1ccc(Br)cc1,-8.48%
18,CCN(CC(=O)NCc1ccc(Cl)cc1)C(=O)CSc1ccc(F)cc1,-28.9%
19,COc1ccc(N2CCN(C(=O)CCc3nnc4ccc(N5CCOCC5)nn34)CC2)cc1,14%
20,COc1ccc(/C=N/NC(=O)c2ccc3nc[nH]c3c2)cc1,15.4%
21,CCN(CC)S(=O)(=O)c1ccc(O)c(C(=O)OCC(=O)N2c3ccccc3CC2C)c1 (centres unmarked),6.19%
22,Cc1cc(C)c2c(N)c(C(=O)NN)sc2n1,14.5%

row,SMILES,"hERG current change (%, negative = inhibition) at 1uM"
1,Cc1cccc(S(=O)(=O)NNC(=O)c2sc(C)nc2C)c1,6.08%
2,COc1ccc(N=C2NC(=O)CS2)c([N+](=O)[O-])c1,12%
3,Cc1cccc(C(=O)N2CCCC(CCC(=O)N3CCN(c4ccccn4)CC3)C2)c1C (centres unmarked),5.01%
4,CC(C)CCNC(=O)C1CCN(S(=O)(=O)c2ccc3c(c2)CC(C)N3C(=O)C2CCC2)CC1 (centres unmarked),3.47%
5,Cc1nc2ccc([N+](=O)[O-])cc2s1,15.3%
6,O=C(CCN1C(=O)c2ccccc2C1=O)OCn1nnc2ccccc2c1=O,18.9%
7,CC(=O)N(C)C1(c2nnnn2CCOC(=O)Nc2ccc(Cl)cc2)CCCCC1,-2.57%
8,CCOc1cccc(CN2CCC(N3CCC(C(=O)NCC4CCCO4)CC3)CC2)c1 (centres unmarked),8.9%
9,CCO/N=C(\N)c1[nH]ncc1Br,7.38%
10,COCCNc1nc(N)c([N+](=O)[O-])c(NCCO)n1,9.03%
11,CN(C)c1ccc(/C=N/Nc2nc3ccccc3o2)cc1,17.1%
12,O=c1c2ccccc2nc(/C=C/c2ccc(O)c(O)c2)n1-c1ccccc1,-3.02%
13,O=C(O)C(=O)O.OC(CNC1CCCc2ccccc21)COc1c(Cl)cccc1Cl (centres unmarked),-10.5%
14,COc1ccc(NC(=O)CSc2nnc(C3CC3)n2C)cc1S(=O)(=O)N1CCOCC1,11.5%
15,COc1ccc(NC(=O)CN2CCN(c3nc(-c4cccc(OC)c4)cs3)CC2)cc1,2.86%
16,O=C(CNC(=O)c1ccc2ccccc2c1)OCC(=O)N1CCN(S(=O)(=O)c2ccc3ccccc3c2)CC1,31%
17,CN1/C(=C/C(=O)CSc2ccccc2C(=O)O)C(C)(C)c2ccccc21,18%
18,CCOC(=O)C1=C(c2ccccc2)NC(=O)NC1c1ccsc1 (centres unmarked),20.4%
19,Cn1c(Cc2ccccc2)nnc1SCCC(=O)Nc1ccccc1,8.15%
20,CC1(C)Oc2ccc(C(=O)N3CCOCC3)cc2N(CC(=O)N2CCOCC2)C1=O,12.9%
